Some of the results follow.
What was measured:
Assay in all cases: glycan array binding signal (z-score within array); higher = stronger binding
Settings in all cases: glycan notation: IUPAC condensed, linker removed
[1] = target: Gal(b1-4)GlcNAc(b1-3)Gal(b1-4)GlcNAc(b1-3)Gal(b1-4)GlcNAc(b1-3)Gal(b1-4)GlcNAc(b1-2)[Gal(b1-4)GlcNAc(b1-3)Gal(b1-4)GlcNAc(b1-3)Gal(b1-4)GlcNAc(b1-3)Gal(b1-4)GlcNAc(b1-6)]Man(a1-6)[Gal(b1-4)GlcNAc(b1-3)Gal(b1-4)GlcNAc(b1-3)Gal(b1-4)GlcNAc(b1-3)Gal(b1-4)GlcNAc(b1-2)Man(a1-3)]Man(b1-4)GlcNAc(b1-4)[Fuc(a1-6)]GlcNAc
In short: (§1)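 Arrays were curated from the Consortium for Functional Glycomics database, 3228 in total, and kept only where the protein sequence was available. Binding is expressed as a within-array Z-score. This score was averaged across arrays of the same protein sequence at different concentrations or buffers and across linkers, and negative values can be read as non-binding.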

[2] = target: Gal(b1-4)GlcNAc(b1-3)Gal(b1-4)GlcNAc(b1-3)Gal(b1-4)GlcNAc(b1-3)Gal(b1-4)GlcNAc(b1-3)Gal(b1-4)GlcNAc(b1-2)Man(a1-3)[Gal(b1-4)GlcNAc(b1-3)Gal(b1-4)GlcNAc(b1-3)Gal(b1-4)GlcNAc(b1-3)Gal(b1-4)GlcNAc(b1-3)Gal(b1-4)GlcNAc(b1-2)Man(a1-6)]Man(b1-4)GlcNAc(b1-4)GlcNAc
In short: as §1

[3] = target: Gal(b1-4)GlcNAc(b1-3)Gal(b1-4)GlcNAc(b1-3)Gal(b1-4)GlcNAc(b1-3)Gal(b1-4)GlcNAc(b1-3)Gal(b1-4)GlcNAc(b1-2)Man(a1-3)[Gal(b1-4)GlcNAc(b1-3)Gal(b1-4)GlcNAc(b1-3)Gal(b1-4)GlcNAc(b1-3)Gal(b1-4)GlcNAc(b1-3)Gal(b1-4)GlcNAc(b1-2)Man(a1-6)]Man(b1-4)GlcNAc(b1-4)[Fuc(a1-6)]GlcNAc
In short: as §1

[4] = target: Gal(b1-4)GlcNAc(b1-3)Gal(b1-4)GlcNAc(b1-3)Gal(b1-4)GlcNAc(b1-3)Gal(b1-4)GlcNAc(b1-3)Gal(b1-4)GlcNAc(b1-2)[Gal(b1-4)GlcNAc(b1-3)Gal(b1-4)GlcNAc(b1-3)Gal(b1-4)GlcNAc(b1-3)Gal(b1-4)GlcNAc(b1-3)Gal(b1-4)GlcNAc(b1-6)]Man(a1-6)[Gal(b1-4)GlcNAc(b1-3)Gal(b1-4)GlcNAc(b1-3)Gal(b1-4)GlcNAc(b1-3)Gal(b1-4)GlcNAc(b1-3)Gal(b1-4)GlcNAc(b1-2)Man(a1-3)]Man(b1-4)GlcNAc(b1-4)[Fuc(a1-6)]GlcNAc
In short: as §1

[5] = target: Gal(b1-4)GlcNAc(b1-3)Gal(b1-4)GlcNAc(b1-3)Gal(b1-4)GlcNAc(b1-3)Gal(b1-4)GlcNAc(b1-3)Gal(b1-4)GlcNAc(b1-3)Gal(b1-4)GlcNAc(b1-2)Man(a1-3)[Gal(b1-4)GlcNAc(b1-3)Gal(b1-4)GlcNAc(b1-3)Gal(b1-4)GlcNAc(b1-3)Gal(b1-4)GlcNAc(b1-3)Gal(b1-4)GlcNAc(b1-3)Gal(b1-4)GlcNAc(b1-2)Man(a1-6)]Man(b1-4)GlcNAc(b1-4)GlcNAc
In short: as §1

[6] = target: Gal(b1-4)GlcNAc(b1-3)Gal(b1-4)GlcNAc(b1-3)GalNAc
In short: as §1

[7] = target: Gal(b1-4)GlcNAc(b1-3)Gal(b1-4)GlcNAc(b1-3)[Gal(b1-4)GlcNAc(b1-3)Gal(b1-4)GlcNAc(b1-6)]GalNAc
In short: as §1

[8] = target: Gal(b1-4)GlcNAc(b1-3)Gal(b1-4)GlcNAc(b1-6)[Gal(b1-3)]GalNAc
In short: as §1

[9] = target: Gal(b1-4)GlcNAc(b1-3)Gal(b1-4)[Fuc(a1-3)]GlcNAc(b1-3)Gal(b1-4)[Fuc(a1-3)]GlcNAc
In short: as §1

[10] = target: Gal(b1-4)GlcNAc(b1-3)GalNAc
In short: as §1

[11] = target: Gal(b1-4)GlcNAc(b1-3)[Fuc(a1-3)GlcNAc(b1-6)]Gal(b1-4)Glc
In short: as §1

[12] = target: Gal(b1-4)GlcNAc(b1-3)[Gal(b1-4)GlcNAc(b1-6)]Gal(b1-4)GlcNAc
In short: as §1

[13] = target: Gal(b1-4)GlcNAc(b1-3)[GlcNAc(b1-6)]Gal(b1-4)GlcNAc
In short: as §1

[14] = target: Gal(b1-4)GlcNAc(b1-6)Gal(b1-4)GlcNAc
In short: as §1

[15] = target: Gal(b1-4)GlcNAc(b1-6)GalNAc
In short: as §1

[16] = target: Gal(b1-4)GlcNAc(b1-6)[Gal(b1-3)]GalNAc
In short: as §1

[17] = target: Gal(b1-4)GlcNAc(b1-6)[Gal(b1-4)GlcNAc(b1-3)]GalNAc
In short: as §1

Gal(b1-4)GlcNAc6P = target: Gal(b1-4)GlcNAc6P
In short: as §1

Gal(b1-6)Gal = target: Gal(b1-6)Gal
In short: as §1

Gal3S(b1-3)GalNAc = target: Gal3S(b1-3)GalNAc
In short: as §1

Gal3S(b1-3)GlcNAc = target: Gal3S(b1-3)GlcNAc
In short: as §1

[18] = target: Gal3S(b1-3)[Fuc(a1-4)]GlcNAc
In short: as §1

Gal3S(b1-4)Glc = target: Gal3S(b1-4)Glc
In short: as §1

Gal3S(b1-4)Glc6S = target: Gal3S(b1-4)Glc6S
In short: as §1

Gal3S(b1-4)GlcNAc = target: Gal3S(b1-4)GlcNAc
In short: as §1

[19] = target: Gal3S(b1-4)[Fuc(a1-3)]Glc6S
In short: as §1

[20] = target: Gal3S(b1-4)[Fuc(a1-3)]GlcNAc
In short: as §1

[21] = target: Gal3S(b1-4)[Fuc(a1-3)]GlcNAc6S
In short: as §1

Gal3S4S(b1-4)GlcNAc = target: Gal3S4S(b1-4)GlcNAc
In short: as §1

Gal3S6S(b1-4)GlcNAc = target: Gal3S6S(b1-4)GlcNAc
In short: as §1

Gal3S6S(b1-4)GlcNAc6S = target: Gal3S6S(b1-4)GlcNAc6S
In short: as §1

Gal4S(b1-4)GlcNAc = target: Gal4S(b1-4)GlcNAc
In short: as §1

Gal4S6S(b1-4)GlcNAc = target: Gal4S6S(b1-4)GlcNAc
In short: as §1

Gal6P(b1-4)GlcNAc = target: Gal6P(b1-4)GlcNAc
In short: as §1

Gal6S(b1-3)GlcNAc = target: Gal6S(b1-3)GlcNAc
In short: as §1

Gal6S(b1-3)GlcNAc6S = target: Gal6S(b1-3)GlcNAc6S
In short: as §1

Gal6S(b1-4)Glc = target: Gal6S(b1-4)Glc
In short: as §1

Gal6S(b1-4)Glc6S = target: Gal6S(b1-4)Glc6S
In short: as §1

B1: ACA (Amaranthus caudatus) (protein)
chain: MAGLPVIMCLKSNNNQKYLRYQSDNIQQYGLLQFSADKILDPLAQFEVEPSKTYDGLVHIKSRYTNKYLVRWSPNHYWITASANEPDENKSNWACTLFKPLYVEEGNMKKVRLLHVQLGHYTQNYTVGGSFVSYLFAESSQIDTGSKDVFHVIDWKSIFQFPKRYVTFKGNNGKYLGVITINQLPCLQFGYDNLNDPKVAHEMFVTSNGTICIKSTYMNKFWRLSTDDWILVDGNDPRETNEAAALFRSDVHDFNVISLLNMQKTWFIKRFTSGKPGFINCMNAATQNVDETAILEIIELGSNN
glycan array binding signal (z-score) [1]: 0.004 | glycan array binding signal (z-score) [2]: 0.541 | glycan array binding signal (z-score) [3]: 0.108 | glycan array binding signal (z-score) [4]: 0.076 | glycan array binding signal (z-score) [5]: -0.071 | glycan array binding signal (z-score) [6]: 2.41 | glycan array binding signal (z-score) [7]: 5.24 | glycan array binding signal (z-score) [8]: 3.84 | glycan array binding signal (z-score) [9]: -0.003 | glycan array binding signal (z-score) [10]: -0.125 | glycan array binding signal (z-score) [11]: 0.71 | glycan array binding signal (z-score) [12]: -0.303 | glycan array binding signal (z-score) [13]: -0.065 | glycan array binding signal (z-score) [14]: -0.236 | glycan array binding signal (z-score) [15]: -0.462 | glycan array binding signal (z-score) [16]: -0.19 | glycan array binding signal (z-score) [17]: 0.108 | glycan array binding signal (z-score) (Gal(b1-4)GlcNAc6P): -0.362 | glycan array binding signal (z-score) (Gal(b1-6)Gal): -0.418 | glycan array binding signal (z-score) (Gal3S(b1-3)GalNAc): -0.205 | glycan array binding signal (z-score) (Gal3S(b1-3)GlcNAc): -0.402 | glycan array binding signal (z-score) [18]: -0.203 | glycan array binding signal (z-score) (Gal3S(b1-4)Glc): -0.156 | glycan array binding signal (z-score) (Gal3S(b1-4)Glc6S): -0.276 | glycan array binding signal (z-score) (Gal3S(b1-4)GlcNAc): -0.039 | glycan array binding signal (z-score) [19]: 0.827 | glycan array binding signal (z-score) [20]: -0.462 | glycan array binding signal (z-score) [21]: -0.386 | glycan array binding signal (z-score) (Gal3S4S(b1-4)GlcNAc): -0.156 | glycan array binding signal (z-score) (Gal3S6S(b1-4)GlcNAc): -0.093 | glycan array binding signal (z-score) (Gal3S6S(b1-4)GlcNAc6S): 0.432 | glycan array binding signal (z-score) (Gal4S(b1-4)GlcNAc): -0.336 | glycan array binding signal (z-score) (Gal4S6S(b1-4)GlcNAc): -0.416 | glycan array binding signal (z-score) (Gal6P(b1-4)GlcNAc): -0.634 | glycan array binding signal (z-score) (Gal6S(b1-3)GlcNAc): -0.469 | glycan array binding signal (z-score) (Gal6S(b1-3)GlcNAc6S): -0.274 | glycan array binding signal (z-score) (Gal6S(b1-4)Glc): -0.168 | glycan array binding signal (z-score) (Gal6S(b1-4)Glc6S): 0.122
